Measured values taken from PubChem BioAssay AID1508624 (National Center for Advancing Translational Sciences (NCATS), 2021).
About 120 (0.25%) of roughly 48,000 compounds were called active. Another 4% or so got no clear call; they are omitted. Calls come from the whole dose curve; as a rule, active = well fitted activation curve with a large enough effect; inconclusive = small, poorly fitted or top-dose-only effect, or another doubt; inactive = no such curve, though single readings can be large or run the other way. This is one part of the list.

Assay: Primary qHTS for Identification of Small Molecule Activators of Huntingtin-Antisense Promoter Activity; note: nearly all actives have a fitted effect of over 55% in size
Conditions: HEK293 HTT-AS promoter firefly luciferase reporter, 24 h; series mostly up to 57.5 µM; activity change, positive = activation: at the top concentration
How it was run: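 Firefly luciferase signal from promoter-reporter HEK293 cells was scaled between vehicle (0%) and zero RLU (-100%). Compounds were tested at final concentrations of up to 57.5 uM over 24 h at 37 degrees C. PTC124 at 50 uM final served as control inhibitor.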
With `CC(=O)N1CCc2c(sc3c2c(=O)n(-c2ccc(C)cc2)c(=O)n3Cc2c(F)cccc2Cl)C1` the “activity change, positive = activation” value was inactive: -12.1%. In the case of `COc1ccc(CNC(=O)c2cc(-c3ccc(OC)cc3)nc3n[nH]c(-c4cccc([N+](=O)[O-])c4)c23)cc1`, the “activity change, positive = activation” value is reported as inactive: 0.293%. In the case of `COc1ccccc1CNC(=O)c1cccn1-c1nnc(N2CCCCC2)s1`, the “activity change, positive = activation” value is reported as inactive: -13.4%. In the case of `COc1ccc(CN2CCc3c(c(=O)n4ncc(C(=O)N5CCN(c6ccc(F)cc6)CC5)c4n3C)C2)cc1`, the “activity change, positive = activation” value is reported as inactive: -50.7%. In the case of `COC(=O)c1c(NC(=O)Cc2coc3cc(C)ccc23)sc2c1CCCC2`, the “activity change, positive = activation” value is reported as inactive: -2.92%. For `CCCOc1cccc(C2c3c(oc4ccccc4c3=O)C(=O)N2c2nncs2)c1` (configuration not stated), the “activity change, positive = activation” value was inactive: -17.2%. For `Cc1ccc(-c2nc(CS(=O)CC(=O)N3CCN(c4cccc(Cl)c4)CC3)c(C)o2)cc1` (configuration not stated), the “activity change, positive = activation” value was inactive: -32.4%. In the case of `COc1cccc(C(=O)c2cn(CC(=O)NCc3ccccc3Cl)c3nc(C)ccc3c2=O)c1`, the “activity change, positive = activation” value is reported as inactive: -59.4%. With `Cc1ccc2cccc(NC(=O)COc3ccccc3Cl)c2n1` the “activity change, positive = activation” value was inactive: -15.1%. For `Cc1ccc(C)c(Cn2c(CCCNC(=O)C3CCCCC3)nc3ccccc32)c1`, the “activity change, positive = activation” value was inactive: -23.3%. With `Cc1c(Cl)cccc1NC(=O)Cn1cc(C(=O)c2cccs2)c2ccccc21` the “activity change, positive = activation” value was inactive: -66.9%. For `Cc1nc(-c2cccc(NC(=O)Nc3ccccc3C(F)(F)F)c2)no1`, the “activity change, positive = activation” value was inactive: -10.1%. For `CCc1ccc(-n2c(=O)c3sc4ccccc4c3n(CC(=O)N3CCCC3)c2=O)cc1`, the “activity change, positive = activation” value was inactive: -5.97%. In the case of `O=C(CSc1nc2ccsc2c(=O)n1Cc1ccccc1Cl)NCc1ccc(F)cc1`, the “activity change, positive = activation” value is reported as inactive: -32.4%. In the case of `CCOC(=O)c1[nH]c(C)c(C(=O)NC(CC)Cc2ccccc2)c1C` (configuration not stated), the “activity change, positive = activation” value is reported as inactive: -2.15%. In the case of `O=C(CN1C(=O)COc2ccc(S(=O)(=O)NC3CCCC3)cc21)Nc1ccc(Cl)cc1`, the “activity change, positive = activation” value is reported as inactive: 8.24%. In the case of `O=C(Nc1cccc(-c2cn3cccnc3n2)c1)c1cc(Br)ccc1Cl`, the “activity change, positive = activation” value is reported as inactive: 1.27%. For `Cc1ccc(C)c(NC(=O)Cn2c(=O)n(CC3CCCO3)c(=O)c3ccccc32)c1` (configuration not stated), the “activity change, positive = activation” value was inactive: -12.1%. In the case of `CC(=O)Nc1ccc(NC(=O)CSc2nc3ccccc3nc2N2CCCCC2)cc1`, the “activity change, positive = activation” value is reported as inactive: -18.3%. With `COc1ccc(C(=O)Nc2cc(C)c(O)c(-c3nc4ccccc4s3)c2)cc1OC` the “activity change, positive = activation” value was inactive: 1.9%. With `Cn1c(-n2cccc2)c(-c2c(-c3ccccc3)[nH]c3c2c(=O)[nH]c(=O)n3C)c(=O)[nH]c1=O` the “activity change, positive = activation” value was inactive: -15.2%. In the case of `Cc1ccc2c(c1)N(CC(=O)NCCc1ccc(Cl)cc1)C(=O)c1cccnc1O2`, the “activity change, positive = activation” value is reported as inactive: -35.5%. In the case of `COc1cccc(CNC(=O)c2ccc3c(c2)nc2n3CCOC2)c1`, the “activity change, positive = activation” value is reported as inactive: -9.73%. In the case of `Cc1ccc(-c2nnn3c2nc(NCC(C)c2ccccc2)c2ccccc23)cc1` (configuration not stated), the “activity change, positive = activation” value is reported as inactive: 16%. For `Cc1oc(=O)oc1CN1CCN(c2cc3c(cc2F)c(=O)c(C(=O)O)c2n3C(C)S2)CC1` (configuration not stated), the activity change, positive = activation was “inactive”. With `CCOc1ccc(CNC(=O)c2ccc(CS(=O)Cc3ccc(Cl)cc3)o2)cc1` (configuration not stated) the “activity change, positive = activation” value was inactive: -11.1%. In the case of `CCN(Cc1ccccc1)C(=O)CN1C(=O)COc2ccc(S(=O)(=O)NC3CCCC3)cc21`, the “activity change, positive = activation” value is reported as inactive: -20.4%. For `COc1ccccc1NC(=O)CN1C(=O)C2(SCC(=O)N2c2ccc(F)c(F)c2)c2ccccc21` (configuration not stated), the “activity change, positive = activation” value was inactive: -28.1%. In the case of `Cc1nnc(NC(=O)c2nc(SCc3ccccc3F)ncc2Cl)s1`, the “activity change, positive = activation” value is reported as inactive: -10.8%. In the case of `O=C(NCc1ccccc1)C(=O)Nc1ccc2nc3n(c(=O)c2c1)CCCCC3`, the “activity change, positive = activation” value is reported as inactive: -13.7%. For `COc1cc(NC(=O)CSc2nc(-c3ccco3)cc(C(F)(F)F)n2)cc(OC)c1OC`, the “activity change, positive = activation” value was inactive: -74.6%. With `COc1nc(C)cnc1NS(=O)(=O)c1cccnc1-c1ccc(-c2nnco2)cc1` the “activity change, positive = activation” value was inactive: 5.08%. With `CCc1cc(C(=O)NCc2ccccc2)no1` the activity change, positive = activation was inactive: 4.58% [at 11.5 µM, percent change from vehicle, -100% = no light]. For `Cc1ccc(CN2COc3ccc4c(-c5ccccc5)cc(=O)oc4c3C2)cc1`, the “activity change, positive = activation” value was inactive: -16.5%. With `Cc1cc(C)nc(-n2nc(C)c3c2N(C)C(=O)CC3c2ccc(Cl)cc2)n1` (configuration not stated) the “activity change, positive = activation” value was inactive: -11.8%. For `Cc1c(C(=O)Nc2cccc(Cl)c2)oc2ccc(S(=O)(=O)N3CCCCCC3)cc12`, the “activity change, positive = activation” value was inactive: -8.65%. With `Cc1cc(-c2ccc(S(=O)(=O)Nc3ccccc3F)s2)on1` the “activity change, positive = activation” value was inactive: -33.9%. In the case of `CC(NC(=O)Cc1ccc(NC(=O)N2CCSc3ncccc32)cc1)c1ccccc1` (configuration not stated), the “activity change, positive = activation” value is reported as inactive: -20.3%. For `CCCOc1ccc(C(=O)Nc2ccc(NC(=O)c3ccccc3)c(Br)c2)cc1`, the “activity change, positive = activation” value was inactive: -27.5%. In the case of `CCc1cccc(NC(=O)Cn2nc(-c3cc(C)ccc3C)ccc2=O)c1`, the “activity change, positive = activation” value is reported as inactive: -24.7%. With `Cc1nnc(NCc2ccccc2)c2c1nnn2Cc1ccc(F)cc1` the “activity change, positive = activation” value was inactive: -22.7%. For `N=C(N=C(N)N)N1CCOCC1`, the activity change, positive = activation was “inactive”. For `Cc1ccc(CN2C(=O)C3(c4ccccc42)N(c2cccc(C(F)(F)F)c2)C(=O)CS3(=O)=O)cc1` (configuration not stated), the “activity change, positive = activation” value was inactive: -26.4%. With `O=c1cc(CSc2n[nH]c(-c3ccccc3)n2)[nH]c2ccccc12` the “activity change, positive = activation” value was inactive: -38.1%. In the case of `COc1ccccc1NC(=O)CSc1oc(-c2cccs2)nc1S(=O)(=O)c1ccccc1`, the “activity change, positive = activation” value is reported as inactive: -15.6%. With `COc1cc(NC(=O)c2cc3c(=O)n(Cc4cccs4)ccc3nc2C)cc(OC)c1OC` the “activity change, positive = activation” value was inactive: -25.6%. For `CC(Oc1ccccc1Cl)C(=O)N1CCN(CCc2ccccn2)CC1` (configuration not stated), the activity change, positive = activation was inactive: 4.98% [at 11.5 µM, percent change from vehicle, -100% = no light].
